First the molecules themselves.
B1: GPR68, Q15743 (parent)
chain: MGNITADNSSMSCTIDHTIHQTLAPVVYVTVLVVGFPANCLSLYFGYLQIKARNELGVYLCNLTVADLFYICSLPFWLQYVLQHDNWSHGDLSCQVCGILLYENIYISVGFLCCISVDRYLAVAHPFRFHQFRTLKAAVGVSVVIWAKELLTSIYFLMHEEVIEDENQHRVCFEHYPIQAWQRAINYYRFLVGFLFPICLLLASYQGILRAVRRSHGTQKSRKDQIQRLVLSTVVIFLACFLPYHVLLLVRSVWEASCDFAKGVFNAYHFSLLLTSFNCVADPVLYCFVSETTHRDLARLRGACLAFLTCSRTGRAREAYPLGAPEASGKSGAQGEEPELLTKLHPAFQTPNSPGSGGFPTGRLA

The least precise scores are not listed. Not listed are two conditions whose scores span a narrow range. Names with del lack the residues named; names with ins carry added residues between the positions named. For part of these data: The data file names ogerin without a concentration.

In data set [1] the parent is B1. As to the kind of experiment: cAMP reporter score (Enrich2 score, wild type = 0); higher = more signal; HEK293T, FACS bins.
In data set [2] the parent is B1. The experiment in a line: surface expression score (Enrich2 score, wild type = 0); higher = more signal; HEK293T, FACS bins.

Drawing on the GPR68 mutational scans of Howard et al. (2025), this text covers cAMP reporter score and surface expression score for four variants.

As for MGNITADNSSMSCTIDHTIHQTLAPVVYVTVLVVGFPANCLSLYFGYLQIKARNELGVYLCNLTVADLFYICSLPFWLQYVLQHDNWSHGDLSCQVCGILLYENIYISVGFLCCISVDRYLAVFHPFRFHQFRTLKAAVGVSVVIWAKELLTSIYFLMHEEVIEDENQHRVCFEHYPIQAWQRAINYYRFLVGFLFPICLLLASYQGILRAVRRSHGTQKSRKDQIQRLVLSTVVIFLACFLPYHVLLLVRSVWEASCDFAKGVFNAYHFSLLLTSFNCVADPVLYCFVSETTHRDLARLRGACLAFLTCSRTGRAREAYPLGAPEASGKSGAQGEEPELLTKLHPAFQTPNSPGSGGFPTGRLA [A124F], the cAMP reporter score was -1.06 in data set [1] (pH 5.5); -0.002 in data set [1] (pH 6); -1.23 in data set [1] (pH 6, modulator: ogerin); -1.26 in data set [1] (pH 6.5, modulator: ogerin). The surface expression score in data set [2] is -1.54.

Consider MGNITADNSSMSCTIDHTIHQTLAPVVYVTVLVVGFPANCLSLYFGYLQIKARNELGVYLCNLTVADLFYICSLPFWLQYVLQHDNWSHGDLSCQVCGILLYENIYISVGFLCCISVDRYLAVHHPFRFHQFRTLKAAVGVSVVIWAKELLTSIYFLMHEEVIEDENQHRVCFEHYPIQAWQRAINYYRFLVGFLFPICLLLASYQGILRAVRRSHGTQKSRKDQIQRLVLSTVVIFLACFLPYHVLLLVRSVWEASCDFAKGVFNAYHFSLLLTSFNCVADPVLYCFVSETTHRDLARLRGACLAFLTCSRTGRAREAYPLGAPEASGKSGAQGEEPELLTKLHPAFQTPNSPGSGGFPTGRLA [A124H], for which the cAMP reporter score is -0.893 in data set [1] (pH 5.5); -0.214 in data set [1] (pH 6); -1.3 in data set [1] (pH 6, modulator: ogerin). Also, the surface expression score in data set [2] is -0.445.

For MGNITADNSSMSCTIDHTIHQTLAPVVYVTVLVVGFPANCLSLYFGYLQIKARNELGVYLCNLTVADLFYICSLPFWLQYVLQHDNWSHGDLSCQVCGILLYENIYISVGFLCCISVDRYLAVEHPFRFHQFRTLKAAVGVSVVIWAKELLTSIYFLMHEEVIEDENQHRVCFEHYPIQAWQRAINYYRFLVGFLFPICLLLASYQGILRAVRRSHGTQKSRKDQIQRLVLSTVVIFLACFLPYHVLLLVRSVWEASCDFAKGVFNAYHFSLLLTSFNCVADPVLYCFVSETTHRDLARLRGACLAFLTCSRTGRAREAYPLGAPEASGKSGAQGEEPELLTKLHPAFQTPNSPGSGGFPTGRLA [A124E], the cAMP reporter score was -1.12 in data set [1] (pH 5.5); -1.13 in data set [1] (pH 6); -1.33 in data set [1] (pH 6, modulator: ogerin); -0.771 in data set [1] (pH 6.5, modulator: ogerin). In data set [2], the surface expression score was -2.1.

On to MGNITADNSSMSCTIDHTIHQTLAPVVYVTVLVVGFPANCLSLYFGYLQIKARNELGVYLCNLTVADLFYICSLPFWLQYVLQHDNWSHGDLSCQVCGILLYENIYISVGFLCCISVDRYLAVGHPFRFHQFRTLKAAVGVSVVIWAKELLTSIYFLMHEEVIEDENQHRVCFEHYPIQAWQRAINYYRFLVGFLFPICLLLASYQGILRAVRRSHGTQKSRKDQIQRLVLSTVVIFLACFLPYHVLLLVRSVWEASCDFAKGVFNAYHFSLLLTSFNCVADPVLYCFVSETTHRDLARLRGACLAFLTCSRTGRAREAYPLGAPEASGKSGAQGEEPELLTKLHPAFQTPNSPGSGGFPTGRLA [A124G], for which the cAMP reporter score in data set [1] (pH 5.5) is -0.608; in data set [1] (pH 6, modulator: ogerin) it was -0.654; in data set [1] (pH 6.5, modulator: ogerin) it was -1.14. Moreover, the surface expression score in data set [2] is -1.29.
